# Where “and” joins values, the source holds several entries; their conditions need not be identical. Identical values can stand only once. Inconclusive results, whose numbers are uncertain, are shown with a selection of clear calls. Where the call is inconclusive, the potency comes from a doubtful curve fit. Calls of active or inactive are those of the source. Calls come from the whole dose curve; as a rule, active = well fitted cell-killing curve with a large enough effect in the repeat runs; inconclusive = weak or mixed curves, or effect the other way; inactive = flat fitted curve, though single readings scatter.
# Test: qHTS RealTime-Glo MT Cell Viability Assay in HEK293 cells - 24 hour (AID 1224886); note: nearly all actives have a fitted effect of over 50% in size
# Conditions: RealTime-Glo luminescence; series mostly up to 76.8 µM
# Source text: National Center for Advancing Translational Sciences [NCATS]
# NIH Chemical Genomics Center [NCGC]
# U.S. Environmental Protection Agency [EPA]
# National Institutes of Environmental Health Sciences [NIEHS]
# National Toxicology Program [NTP]
# U.S. Food and Drug Administration [FDA]
# Measure of cell viability is critical in the cell-base assay. Analysis of cell viability is necessary for the characterization of cell responses to cytotoxic drugs and environmental stress. A RealTime-Glo MT Cell Viability Assay to monitor cell viability in real time of continues cell culture during 40 hours of compound treatment was used to screen Tox21 10K library compounds in Hek293 cells. The RealTime-Glo MT Cell Viability Assay is a nonlytic, homogeneous, bioluminescent method to measure cell viability in real time using a simple, plate-based method. The assay involves adding NanoLuc luciferase and a cell-permeant prosubstrate to cells in culture. Viable cells reduce the proprietary prosubstrate to generate a substrate for NanoLuc luciferase. This substrate diffuses from cells into the surrounding culture medium, where it is rapidly used by the NanoLuc Enzyme to produce a luminescent signal. The signal correlates with the number of viable cells, making the assay well suited for cytotoxicity studies.
# Tox21 Assay Protocol Summary:
# The mixture of Hek293 cell suspension and reagents were dispensed at 600cells/6 ul/well in 1536-well tissue culture treated black solid bottom plates using a Multidrop dispenser. After the assay plates were incubated at a 37 C/5% CO2 incubator for 5 hours, 23 nL of compounds dissolved in DMSO, positive and negative controls was transferred to the assay plate by a pintool work station. The plates were incubated at 37 C for 40 hours. The luminescence intensity were measured at 0h, 8h, 16h, 24h, 32h and 40h time points using ViewLux plate reader during compound treatment.
# Potency is the fitted concentration of half-maximal effect; tags give direction and shape of the fitted curve.
row,SMILES,Potency
1,CC(=O)[C@H]1[C@H](C#N)C[C@H]2[C@@H]3CC=C4C[C@@H](O)CC[C@]4(C)[C@H]3CC[C@@]21C,"inconclusive: 8.39 µM [cytotoxic, partial curve]"
2,CCOCCOCCOCC,inactive
3,C=C(CC(=O)O)C(=O)O,inactive
4,NC(=O)NS(=O)(=O)c1ccc(N)cc1,inactive
5,O=S(=O)(O)c1ccc(N=Nc2c(O)ccc3ccccc23)cc1,"inconclusive: 49 µM [cytotoxic, partial curve, poor fit]"
6,O=C(c1ccc(F)cc1)C1CCN(CCn2c(=O)[nH]c3ccccc3c2=O)CC1,active: 9.52 µM
7,Cc1cc(S(=O)(=O)O)ccc1N=Nc1c(O)ccc2ccccc12,inactive
8,CN1CCN(C2=Nc3cc(F)ccc3Cc3ccccc32)CC1,inactive
9,Oc1c(Cl)cc(Cl)c(Cl)c1Cl,"inconclusive: 53.8 µM [cytotoxic, single point] and inconclusive: 54.9 µM [cytotoxic, single point]"
10,O=C(CCc1ccc(O)cc1)c1c(O)cc(O)cc1O,active: 39.8 µM
11,CCOc1ccc2nc3cc(N)ccc3c(N)c2c1,"inconclusive: 16.9 µM [cytotoxic, partial curve]"
12,CC[N+](CC)(CC)CCOc1ccc(/C=C/c2ccccc2)cc1,"inconclusive: 2.39 µM [cytotoxic, full curve]"
13,Cc1ccc(N(CCO)CCO)cc1,inactive
14,CN(C)[C@@H]1C(=O)C(C(N)=O)=C(O)[C@@]2(O)C(=O)C3=C(O)c4c(O)cccc4C[C@H]3C[C@@H]12,inactive
15,Oc1ccc(Cc2ccccc2O)cc1,"inconclusive: 17.6 µM [cytotoxic, partial curve] and active: 12.3 µM"
16,CCOC(=O)CC(O)(CC(=O)OCC)C(=O)OCC,"inconclusive: 61.6 µM [rising, partial curve, poor fit]"
17,Cc1cc(CCCOc2c(C)cc(-c3noc(C(F)(F)F)n3)cc2C)on1,"inconclusive: 23.9 µM [cytotoxic, partial curve]"
18,Nc1cccc2c(N)cccc12,"inconclusive: 11 µM [rising, partial curve]"
19,CS(=O)(=O)c1ccc([C@@H](C[C@H]2CCC(=O)C2)C(=O)Nc2cnccn2)cc1Cl,inactive
20,CC(=O)S[C@@H]1CC2=CC(=O)CC[C@]2(C)[C@H]2CC[C@@]3(C)[C@@H](CC[C@@]34CCC(=O)O4)[C@H]12,"inconclusive: 38.9 µM [cytotoxic, partial curve]"

row,SMILES,Potency
1,CC(C)(N=C=O)c1cccc(C(C)(C)N=C=O)c1,"inconclusive: 34.4 µM [cytotoxic, partial curve]"
2,CCCCCC(C)OC(=O)COc1ccc(Cl)c2cccnc12 (stereo not given),"inconclusive: 24.5 µM [cytotoxic, partial curve, poor fit]"
3,Cn1c(=O)cc(Oc2ccc(F)cc2F)c2cnc(NCC(C)(C)O)nc21,"inconclusive: 43.6 µM [cytotoxic, partial curve]"
4,CC(C)[N+](C)(CCOC(=O)C1c2ccccc2Oc2ccccc21)C(C)C,"inconclusive: 34.7 µM [cytotoxic, partial curve]"
5,O=C(Oc1ccccc1)c1ccc(O)cc1,"inconclusive: 55.3 µM [cytotoxic, partial curve, poor fit]"
6,c1csc(SSc2cccs2)c1,"inconclusive: 49 µM [cytotoxic, single point]"
7,SCCc1cnccn1,inactive
8,COc1cc([C@H]2Oc3cc([C@H]4Oc5cc(O)cc(O)c5C(=O)[C@@H]4O)ccc3O[C@@H]2CO)ccc1O,"inconclusive: 43.5 µM [cytotoxic, partial curve]"
9,Oc1cc(Cl)cc(Cl)c1Cl,"inconclusive: 56.3 µM [cytotoxic, single point]"
10,CC[N+](CC)(CC)CCOC(=O)C(C1CCCC1)C1CCCC1,"inconclusive: 13.4 µM [cytotoxic, partial curve]"
11,CC(C)(Cc1c[nH]c2ccccc12)NCC(O)COc1ccccc1C#N (stereo not given),active: 9.52 µM
12,CCN(CC)c1ccc2c(c1)Oc1cc(N(CC)CC)ccc1C21OC(=O)c2ccccc21,"inconclusive: 23.9 µM [cytotoxic, single point]"
13,C=C1CC[C@H](O)CC1=C/C=C1\CCC[C@]2(C)[C@@H]([C@H](C)/C=C/[C@H](C)C(C)C)CC[C@@H]12,"inconclusive: 43.3 µM [cytotoxic, partial curve]"
14,O[C@@H](CNC[C@H](O)[C@H]1CCc2cc(F)ccc2O1)[C@@H]1CCc2cc(F)ccc2O1,active: 19 µM
15,Brc1c2ccccc2cc2ccccc12,"inconclusive: 55.5 µM [cytotoxic, partial curve, poor fit]"
16,CCC(=O)C(=O)CC,"inconclusive: 25.6 µM [cytotoxic, partial curve]"
17,Cc1cc(C)c(S(=O)(=O)O)cc1N=Nc1cc(S(=O)(=O)O)c2ccccc2c1O,"inconclusive: 24.5 µM [cytotoxic, partial curve]"
18,Nc1c(S(=O)(=O)O)cc(Br)c2c1C(=O)c1ccccc1C2=O,"inconclusive: 38.9 µM [cytotoxic, partial curve, poor fit]"
19,Clc1cc(Cl)c(Cl)cc1Cl,inactive
20,CCCC[P+](C)(CCCC)CCCC,"inconclusive: 22.2 µM [cytotoxic, partial curve, poor fit]"

# Reference: PubChem BioAssay (Tox21)
